Data from ChEMBL document CHEMBL4888484, “Replenishing the malaria drug discovery pipeline: Screening and hit evaluation of the MMV Hit Generation Library 1 (HGL1) against asexual blood stage Plasmodium falciparum ,using a nano luciferase reporter read-out” (2022).
Hit rate of the full screen: of about 150,000 compounds, about 540 (0.36%) showed an effect of 50% or more. This is one part of the list.

These molecules were tested on Plasmodium falciparum (assay: Primary screen in NF54 nanoGlo assay, in single point, at 2uM, 72h; a lower Z score goes with more inhibition). Conditions: timepoint 72 hour.
Type: functional, Erythrocyte

| SMILES | % Inhibition | Z score |
| --- | --- | --- |
| N#Cc1ncn(-c2ccc(Oc3ccccc3)cc2)c1N | -9% | 1.24 |
| CN(C)c1ncccc1CNCC(C)(C)CN1CCOCC1 | -17% | 2.24 |
| COCCc1nsc(N2C(C)CCC2C)n1 (stereo not drawn) | 5% | -0.75 |
| CC(C)Cc1nc(N2CCN(C(=O)c3ccc(Cl)c(Cl)c3)CC2)c2c(-c3ccc4ccccc4c3)noc2n1 | 11% | -1.06 |
| Cc1cccc(CNC(=O)c2sc(Nc3ccc(C)cc3C)nc2C)c1 | 35% | -3.95 |
| CCn1ncc(C(=O)Nc2nc(-c3ccc(C)cc3)c(C)s2)c1C(F)(F)F | -16% | 1.78 |
| FC1(F)CC[C@H](Cc2nc(Cc3ccc4cn[nH]c4c3)no2)C1 | -11% | 1.4 |
| CC(=O)NC[C@H]1CCN(C(=O)c2ccoc2C(C)C)C1 | -12% | 2.27 |
| O=C(CN1CCCCCC1)N1CCc2[nH]nc(C3CC3)c2C1 | -3% | 0.41 |
| c1ccc(CNc2nccc3c2c2ncnc(-c4ccccc4)c2n3Cc2ccccc2)cc1 | -9% | 1.78 |
| CC(C)c1nnc(CN[C@@H](C)c2ccc(Cl)s2)n1C | -9% | 1.4 |
| C#CCCC1(CCC(=O)N2CCN(c3ncc(F)cn3)CC2)N=N1 | -14% | 1.74 |
| COC(=O)C1C2CCC(C2)C1NC(=O)c1cccn1C (stereo not drawn) | -12% | 1.6 |
| CCC(=O)N(CCCOC)Cc1c(-c2cccc(C)c2)noc1N1CCCC1 | 1% | -0.18 |
| O=C(NCC1CCCO1)N1CCC(c2noc(-c3ccccc3)n2)C1 (stereo not drawn) | -2% | 0.41 |
| Cc1ccc2ncc(CN3CC[C@H](c4cnccn4)C3)cc2c1 | -19% | 2.5 |
| CC(C)(O)c1cn(C2CN(C(=O)c3ccc4ccccc4c3)C2)nn1 | 0% | 0.05 |
| CC(C)CCNC(=O)NCc1nc([C@H]2CC(=O)N(Cc3ccc(F)cc3)C2)no1 | -10% | 1.13 |
| O=C(Nc1ccc(CCN2CCCC2)cc1)c1cccnc1C1CC1 | -16% | 2.52 |
| O=C(Cn1nc2n(c1=O)C(=O)N(c1ccccc1)C2)Nc1cc(F)ccc1F | -6% | 0.82 |
| Cc1ccc(S(=O)(=O)Nc2ccccc2-c2ccc3cc(C)ccc3n2)cc1 | 5% | -0.6 |
| CCCCn1c(N)c(N(Cc2ccccc2OC)C(=O)c2ccc(F)cc2)c(=O)[nH]c1=O | 3% | -0.31 |
| Cc1nc(-c2ncc(C(=O)N(C)[C@@H](C)c3ccon3)c(O)n2)cs1 | 9% | -1.24 |
| CC1CCN(c2nc(N3CCN(C)CC3)nc3c2CN(C(=O)c2cccc(F)c2)CC3)CC1 | 0% | 0.03 |
| Cc1ncccc1C(=O)N1CCC(Cc2ncc(C)n2Cc2ccc(F)cc2)CC1 | -11% | 1.65 |
| CC(C)c1nc2ccc(C(=O)N[C@@H](C)c3ccc4c(c3)OCCO4)cc2o1 | -19% | 1.75 |
| CCCOc1ccc(Br)cc1C#N | -20% | 1.77 |

| SMILES | % Inhibition | Z score |
| --- | --- | --- |
| CC1CCCC(C(=O)Nc2ccc(OCC(=O)N(C)C)cc2F)C1 (stereo not drawn) | -13% | 1.72 |
| O=C(O)[C@@H]1COCCN1C(=O)c1nc(-c2ccccc2)n(-c2ccccc2)n1 | -3% | 0.32 |
| Cc1nc(C(N)=O)n(CC(=O)Nc2ccc(Cl)cc2)n1 | -6% | 0.62 |
| CC1CN(C(=O)c2ccc3c(c2)CCC3)CC(C)O1 (stereo not drawn) | -3% | 0.4 |
| CC(C)(CNC(=O)C1C2CCCC21)CC1CCOCC1 (stereo not drawn) | -6% | 0.8 |
| C[C@H]1CCCN(Cc2ccccc2CNCc2ncc[nH]2)C1 | 1% | -0.09 |
| Cc1ccc(CN2CCC(N3CC[C@@H]4CCCC[C@H]4C3)CCC2=O)cc1 (stereo partly drawn) | -10% | 1.28 |
| COc1ccc(-c2noc(Cc3nnc(-c4cccc(Br)c4)o3)n2)cc1 | -12% | 1.87 |
| Cc1cc(NC(=O)N2CCN(c3ncc[nH]c3=O)CC2)c(Cl)cc1F | -1% | 0.17 |
| O=C(NCc1ccc2c(c1)OCO2)c1cc2cn(C3CCCC3)cc2s1 | 2% | -0.32 |
| c1ccc(-n2ncc3c(NC4CCCC4)nnnc32)cc1 | -12% | 1.82 |
| CCn1ccc2ccc(CN(C)C[C@H]3CCOC3)cc21 | 0% | -0.09 |
| Cc1c(C(=O)O)sc2ncnc(Nc3ccc(N(C)C)cc3)c12 | -11% | 1.21 |
| CCCC[C@H](CC)C(=O)Nc1ccccc1C(N)=O | -8% | 1.15 |
| CC1CNCCN1C(=O)C1Cc2cccc(F)c2O1 (stereo not drawn) | -16% | 1.93 |
| Cc1noc(C)c1CN1C(=O)[C@@H]2CC[C@H]1CN(C(=O)[C@H]1CC[C@@H](O)CC1)C2 | 7% | -0.9 |
| CCc1nnc(CN(CC)Cc2ccc([C@@H]3CCCO3)s2)o1 | -12% | 1.38 |
| O=C(CCc1cc2ccccc2o1)Nc1nnc[nH]1 | -10% | 1.54 |
| Cc1nnc2cc(N3CCN(S(=O)(=O)c4ccc(Br)cc4)CC3)cnn12 | -1% | 0.12 |
| COCCCNC(=O)CN(C)c1c(Cl)cccc1C#N | -15% | 2.86 |
| CCS(=O)(=O)N1CCC[C@@]2(CCC(=O)N(Cc3ccncc3)C2)C1 | -1% | 0.27 |
| O=S1(=O)C[C@H](O)[C@@H](n2ccnc2-c2ccccc2Cn2cccn2)C1 | -10% | 1.62 |
| Cc1ccc(C2=NC3(CCN(CC(=O)Nc4ccc(Br)cc4F)CC3)NC2=O)cc1C | -11% | 1.55 |
| CCOc1cc(N(C)[C@@H](C)c2cnn(C)c2)ncn1 | 3% | -0.41 |
| COc1cnc([C@@H]2CCCN2Cc2cn(C(C)(C)C)nn2)[nH]c1=O | 25% | -3.18 |
| CC(C)(C)CC(C)(C)NS(=O)(=O)Cc1ccccc1 | -8% | 1.57 |
| O[C@H]1Cc2ccccc2[C@H]1Nc1cc(-n2ccnc2)ncn1 | -1% | 0.2 |
